For 153 variants, enrichment ratio results are on record in a collection of fitness landscapes (doi:10.1126/science.1257360).

The chains are these.
B1: PhoQ; a variant is named by its letters at X, in order, P23837 (parent)
chain: MKKLLRLFFPLSLRVRFLLATAAVVLVLSLAYGMVALIGYSVSFDKTTFRLLRGESNLFYTLAKWENNKLHVELPENIDKQSPTMTLIYDENGQLLWAQRDVPWLMKMIQPDWLKSNGFHEIEADVNDTSLLLSGDHSIQQQLQEVREDDDDAEMTHSVAVNVYPATSRMPKLTIVVVDTIPVELKSSYMVWSWFIYVLSANLLLVIPLLWVAAWWSLRPIEALAKEVRELEEHNRELLNPATTRELTSLVRNLNRLLKSERERYDKYRTTLTDLTHSLKTPLXXLQXXLRSLRSEKMSVSDAEPVMLEQISRISQQIGYYLHRASMRGGTLLSRELHPVAPLLDNLTSALNKVYQRKGVNISLDISPEISFVGEQNDFVEVMGNVLDNACKYCLEFVEISARQTDEHLYIVVEDDGPGIPLSKREVIFDRGQRVDTLRPGQGVGLAVAREITEQYEGKIVAGESMLGGARMEVIFGRQHSAPKDE

The other results are listed elsewhere or left out.

In this assay the parent is B1. In words: enrichment ratio after two sorts for PhoP signalling (ratio (wild type AVST 3.29)); higher = more functional. The note with it: with PhoP (E. coli).
For the variant MCIC, the enrichment ratio was no more than 0.25. As to NKFM, the enrichment ratio is no more than 0.25. With YSKI the figure was no more than 0.25; with TGPR, no more than 0.25. For RCLT, the enrichment ratio is no more than 0.25.

With LYLR, the enrichment ratio is no more than 0.25. EQVC: the enrichment ratio is no more than 0.25. Regarding EYSR, the enrichment ratio is no more than 0.25. In the case of YHPD it was no more than 0.25; in that of NRHS, no more than 0.25; in that of IHCS, no more than 0.25.

On to HPAW, for which the enrichment ratio is no more than 0.25. Turning to MNND, the enrichment ratio is no more than 0.25. Turning to QFKL, the enrichment ratio was no more than 0.25. For the variant GKMW, the enrichment ratio was no more than 0.25.

For PTGN, the enrichment ratio was no more than 0.25. With VDVV the figure was no more than 0.25. In the case of PTHM it was no more than 0.25; in that of WDAK, no more than 0.25. In the case of IFPA it was no more than 0.25; in that of FSSK, no more than 0.25. As for FRGD, the enrichment ratio is no more than 0.25.

As for ILIL, the enrichment ratio was no more than 0.25. Regarding MPML, the enrichment ratio is no more than 0.25.

In the case of KDEP, the enrichment ratio is no more than 0.25. Consider VYEN, for which the enrichment ratio was no more than 0.25. With HTNN the figure was no more than 0.25; with NRMM, no more than 0.25; with ETPL, no more than 0.25. In the case of IECT it was 16.6. Consider YPPF, for which the enrichment ratio is no more than 0.25. Turning to LANI, the enrichment ratio was no more than 0.25. Turning to SAPW, the enrichment ratio was no more than 0.25. With LQFH the figure was no more than 0.25; with PVFK, no more than 0.25.

As for INCC, the enrichment ratio is no more than 0.25.

For the variant TPYI, the enrichment ratio was no more than 0.25. Consider HYLT, for which the enrichment ratio was no more than 0.25.

Consider VLRL, for which the enrichment ratio was no more than 0.25. In the case of RILE it was no more than 0.25. On to ADIH, for which the enrichment ratio was no more than 0.25.

MLWG: the enrichment ratio is no more than 0.25. Regarding TKAV, the enrichment ratio was 8.07. Turning to LALC, the enrichment ratio was 0.604.

For PSSG, the enrichment ratio is no more than 0.25. For the variant MTAY, the enrichment ratio stood at 4.94. With RMWD, the enrichment ratio is no more than 0.25.

On to YMKN, for which the enrichment ratio was no more than 0.25.

Regarding AGTY, the enrichment ratio stood at 0.894. MMIY: the enrichment ratio was no more than 0.25. For WVPN, the enrichment ratio is no more than 0.25. For the variant NTKS, the enrichment ratio was no more than 0.25. For the variant KPWV, the enrichment ratio is no more than 0.25.

Turning to NTKY, the enrichment ratio was no more than 0.25. With TAHY, the enrichment ratio came to 27.1.

In the case of DYPQ, the enrichment ratio was no more than 0.25. With MGDV the figure was no more than 0.25. For DHNW, the enrichment ratio was no more than 0.25. For the variant LVGA, the enrichment ratio was no more than 0.25. Turning to MYRA, the enrichment ratio was no more than 0.25. Consider IIRV, for which the enrichment ratio is no more than 0.25.

Regarding LMYT, the enrichment ratio was no more than 0.25. For ENFL, the enrichment ratio was no more than 0.25. Consider LKNW, for which the enrichment ratio was no more than 0.25. Regarding KVFM, the enrichment ratio was no more than 0.25.

Consider HVPG, for which the enrichment ratio is no more than 0.25. Consider QPYW, for which the enrichment ratio was no more than 0.25.

With KSMS, the enrichment ratio is no more than 0.25. For LPRH, the enrichment ratio was no more than 0.25. Turning to ASDV, the enrichment ratio is no more than 0.25. In the case of EHRL it was no more than 0.25; in that of QPHR, no more than 0.25; in that of NVGH, no more than 0.25. In the case of RVEP it was no more than 0.25; in that of NYIN, no more than 0.25. For the variant KPQN, the enrichment ratio was no more than 0.25. As for ELGS, the enrichment ratio was no more than 0.25. In the case of QMVI, the enrichment ratio was no more than 0.25. As for YDMS, the enrichment ratio is no more than 0.25.

LYSE: the enrichment ratio was no more than 0.25. Take GWDF: the enrichment ratio is no more than 0.25. For NAYQ, the enrichment ratio is no more than 0.25. For the variant KDWW, the enrichment ratio is no more than 0.25. With GQQM the figure was no more than 0.25; with RFAQ, no more than 0.25. In the case of FEPI, the enrichment ratio was no more than 0.25. With IYHM the figure was no more than 0.25; with IKSM, no more than 0.25; with SMLE, 8.43.

Regarding TSMA, the enrichment ratio worked out at 9.58.

As for HGIL, the enrichment ratio is 5.72. Regarding RNMQ, the enrichment ratio is no more than 0.25. Consider IEVH, for which the enrichment ratio is no more than 0.25.

Regarding WGGF, the enrichment ratio was no more than 0.25. In the case of IWHL it was no more than 0.25; in that of QFPD, no more than 0.25; in that of RSRW, no more than 0.25. On to EHRY, for which the enrichment ratio was no more than 0.25.

Take GNVA: the enrichment ratio is no more than 0.25. Regarding WNNR, the enrichment ratio stood at 0.794. As to RRRA, the enrichment ratio is no more than 0.25. With WLYE, the enrichment ratio was no more than 0.25.

PKGY: the enrichment ratio is no more than 0.25. Consider VMHQ, for which the enrichment ratio was no more than 0.25.

Turning to SSQT, the enrichment ratio was 2.32. For YNWY, the enrichment ratio was no more than 0.25. AESA: the enrichment ratio worked out at 8.72. In the case of ENPG, the enrichment ratio is no more than 0.25.

Consider LKTT, for which the enrichment ratio was no more than 0.25. On to KSGF, for which the enrichment ratio was no more than 0.25. For the variant PHHN, the enrichment ratio was no more than 0.25.

Turning to QHIM, the enrichment ratio was no more than 0.25. HDCF: the enrichment ratio is no more than 0.25. For the variant SCTQ, the enrichment ratio came to 9.21. Turning to RAKD, the enrichment ratio is no more than 0.25.

MCEW: the enrichment ratio was no more than 0.25. With NGHW, the enrichment ratio is no more than 0.25. In the case of YRQL it was no more than 0.25; in that of KFIK, no more than 0.25. As to SFPH, the enrichment ratio was no more than 0.25.

Take TITR: the enrichment ratio worked out at 1.27. On to RTGF, for which the enrichment ratio was no more than 0.25. In the case of KVKN it was no more than 0.25. As for RQFQ, the enrichment ratio was no more than 0.25. With NFMM, the enrichment ratio is no more than 0.25. As to AESR, the enrichment ratio came to 3.86.

Turning to DYWH, the enrichment ratio was no more than 0.25. On to PDAF, for which the enrichment ratio was no more than 0.25. With WMYH, the enrichment ratio is no more than 0.25. Consider MSKI, for which the enrichment ratio is no more than 0.25. Turning to RHFE, the enrichment ratio is no more than 0.25. FHCC: the enrichment ratio is no more than 0.25. With IICY, the enrichment ratio is no more than 0.25. As to TCYH, the enrichment ratio turned out to be 2.68. With KEVV the figure was no more than 0.25. For RQGD, the enrichment ratio is no more than 0.25. With MVRH the figure was no more than 0.25. With FTSV, the enrichment ratio was no more than 0.25. Take QNTH: the enrichment ratio is no more than 0.25. Regarding NMPP, the enrichment ratio is no more than 0.25. Consider VMEE, for which the enrichment ratio is no more than 0.25.

Take TKGH: the enrichment ratio is no more than 0.25. In the case of FCSL, the enrichment ratio is 0.351. As to ISEM, the enrichment ratio is no more than 0.25. With QRIC, the enrichment ratio was no more than 0.25. For the variant HRPG, the enrichment ratio is no more than 0.25. With LYAG the figure was no more than 0.25. With KLSH the figure was no more than 0.25; with KFFN, no more than 0.25; with AHIQ, no more than 0.25.

As to KGWC, the enrichment ratio was no more than 0.25. Take FTCQ: the enrichment ratio was found to be 7.15.

For YLCY, the enrichment ratio is no more than 0.25.
